The source of these data is PubChem BioAssay AID463173 (ICCB-Longwood Screening Facility, Harvard Medical School, 2010).

The structures appear in SMILES notation. The campaign covered roughly 52,000 compounds. About 1,700 (3.3%) were called active. No stated cut-off is given here; in the data, active means survival mostly below about 52% (no sharp cut-off); inactive means mostly above about 56%. Some of the results follow.

The test system of the assay is Wild type. Kind of assay: S. aureus survival, RN4220 and DeltatarO strains – OD600, teichoic acid synthesis inhibitors, primary screen (AID 463173). The settings on record: S. aureus RN4220 wild type/DeltatarO growth, OD600, 18 h, active compounds read low, screened at 18.75 µg/mL (by protocol).
On to `NC(=O)CN1C(=O)Cc2ccccc21`, for which the survival was inactive: 105%.
The value for `O=C(CCc1ccccc1)N/N=C/c1cccc(O)c1` was inactive: 114%; that for `CC(C)(C)c1ccc(-c2nnc(-c3ccc(N4CCOCC4)cc3)o2)cc1` was inactive: 125%; that for `CCCN(C(=O)C1CCN(S(=O)(=O)c2c(C)noc2/C=C/c2ccc(C)cc2)CC1)c1ccccc1F` was inactive: 74%.
The value for `Cc1cccc(NC(=O)C2CCC(CNS(=O)(=O)c3ccc4c(c3)CCCC(=O)N4)CC2)c1C` (centres undefined) was inactive: 89%.
The value for `CCN1CCOC(=O)C1CC(=O)Nc1ccccc1C(F)(F)F` (centres undefined) was inactive: 81%; that for `Cc1cc(C)cc(N(C)S(=O)(=O)c2nnc(NC(=O)COc3ccc(C)c(C)c3)s2)c1` was inactive: 39%.
For the compound `CCOCCCNC(=O)c1c(NC(=O)Cc2coc3c(C)c(C)ccc23)sc2c1CCC2`, the survival was inactive: 87%.
On to `CC(=O)c1ccc(NC(=O)c2cccc(NC(=O)N3CCSc4ncccc43)c2)cc1`, for which the survival is inactive: 55%.
In the case of `COc1cc(OC)c(NC(=O)COc2ccccc2-c2nnc(-c3ccccc3)o2)cc1Cl` it was inactive: 87%; in that of `COC(=O)c1cc(C)nc2c1c(=O)nc(SCc1cc(C)ccc1C)n2C1CC1`, inactive: 76%.
The value for `CCCN(Cc1cc2cc(C)ccc2[nH]c1=O)C(=O)c1cccc(Cl)c1` was inactive: 91%; that for `CCOC(=O)c1cc(-c2ccc(/C=C(\C#N)C(N)=C(C#N)C#N)o2)ccc1Cl` was inactive: 136%.
The value for `Cc1c(Cl)cccc1NC(=O)CN1C(=O)c2ccccc2Sc2ncccc21` was inactive: 92%.
For the compound `Cc1cccc(C(=O)NC2(C(F)(F)F)N=C(c3ccccc3)N(Cc3ccccc3)C2=O)c1` (centres undefined), the survival was inactive: 91%.
The value for `CCc1ccccc1Nc1nn2c(=O)c3ccc(C(=O)NCCc4ccccc4)cc3nc2s1` was inactive: 68%; that for `O=C(CSc1nc2ccccc2n1CC(=O)Nc1ccc(F)cc1F)Nc1ccc(F)cc1` was inactive: 72%; that for `Cc1ccc(-c2c(CN3CCN(c4cc(Cl)ccc4C)CC3)csc2C)cc1` was inactive: 92%.
The value for `O=C(CSc1nnc(-c2ccco2)c(-c2ccco2)n1)N1c2ccccc2Sc2ccc(Cl)cc21` was inactive: 107%; that for `CC(=O)N1CCc2c(sc3c2c(=O)n(-c2ccccc2Cl)c(=O)n3C)C1` was inactive: 78%; that for `CCn1c(C)cs/c1=N\C(=S)Nc1ccccc1C` was inactive: 105%.
In the case of `COCCCN1CCc2nc(SCC(=O)Nc3ccc(C)c(Cl)c3)[nH]c(=O)c2C1` it was inactive: 90%.
Turning to `CCn1c(=O)c2cc(C(=O)NCCc3cccc(C)c3)sc2c2ccccc21`, the survival is inactive: 81%.
In the case of `CCOc1ccc2c(c1)c(=O)c(S(=O)(=O)c1ccc(C)cc1)cn2CC(=O)Nc1ccc(C)cc1` it was inactive: 98%; in that of `COc1ccc(-n2c(SCc3nc(-c4ccc(C)cc4)no3)nnc2-c2ccncc2)cc1`, inactive: 77%; in that of `CNS(=O)(=O)c1cn(CC(=O)Nc2ccc(F)cc2F)cc1S(=O)(=O)NC`, active: -3%.
For `Cc1ccc(N2CC(c3nnc(Cc4ccc(Cl)cc4)o3)CC2=O)cc1` (centres undefined), the survival was inactive: 37%.
In the case of `COc1nc(Nc2ccc(C)cc2)nc(NC2CCCC2)n1` it was inactive: 125%.
As for `CCCCNc1sc(S(=O)(=O)CC)nc1S(=O)(=O)c1ccc(C)cc1`, the survival is inactive: 82%.
The value for `CC(=O)Nc1cc(C(=O)NCc2ccccc2)ccc1Sc1ccc(C)cc1` was inactive: 78%; that for `CCc1ccccc1NC(=O)CSc1nnc(-c2cc(OC)c(OC)c(OC)c2)o1` was inactive: 109%.
In the case of `Cc1cccc(N2CCN(C(=O)Cn3c(=O)c4cccn4c4ccc(F)cc43)CC2C)c1` (centres undefined) it was inactive: 110%.
The value for `CCN(c1ccc(OC)cc1)S(=O)(=O)c1c(C(=O)N2CCCCCC2)c(C)n(C)c1C` was inactive: 69%; that for `COc1ccc(N2CCN(CC(O)COc3ccccc3C(C)(C)C)CC2)cc1` (centres undefined) was active: -3%.
As for `Cc1ccc(CNC(=O)C(C(C)C)N2Cc3ccccc3C2=O)cc1` (centres undefined), the survival is inactive: 80%.
The value for `Cc1cccc(C(=O)Nc2ccc(-c3nc4ccccc4s3)c(C)c2)c1` was inactive: 73%.
For `CCCCn1nnnc1SCC(=O)NCc1ccccc1`, the survival is inactive: 103%.
The value for `O=C(NC1CCCCC1)c1ccc(Cn2c(SCc3cccc(F)c3)nc3cccnc32)cc1` was inactive: 88%; that for `CN(C(=O)CSc1cn(CC(=O)N2CCCCCC2)c2ccccc12)c1ccccc1` was inactive: 88%; that for `O=C(CCc1nc(-c2ccccc2F)no1)Nc1cccc(C(F)(F)F)c1` was inactive: 64%.
In the case of `Cc1ccc(CC(=O)N(Cc2nc(-c3ccc(C)cc3)no2)C(C)C)cc1`, the survival was active: -1%.
With `Cc1ccc(C)c(N2CCN(C(=O)c3cccc(-n4c(C)nc5cccnc54)c3)CC2)c1`, the survival is inactive: 85%.
The value for `Cc1nn(-c2ccccc2)c(OC(=O)c2ccc(Br)cc2)c1S(=O)(=O)c1ccccc1` was inactive: 111%; that for `CCOc1ccc(NC(=O)Cn2c(=O)n(CCc3ccccc3)c(=O)c3c4c(sc32)CN(C(C)=O)CC4)cc1` was inactive: 117%; that for `CCc1ccc(NC(=O)CSC2=Nc3ccccc3C3=NC(CCC(=O)NCc4ccccc4OC)C(=O)N23)cc1` (centres undefined) was inactive: 65%.
The value for `CCOCCCNC(=O)c1cnc2sc(N3CCCCCC3)nn2c1=O` was inactive: 68%; that for `CCOc1ccc(OCC)c(NC(=O)c2cc(C)nc3c2c(C)nn3-c2cccc(Cl)c2C)c1` was inactive: 78%; that for `Cn1c(=O)c2sccc2n2c(CCCC(=O)Nc3ccc(F)cc3F)nnc12` was inactive: 146%.
The value for `O=C(COc1ccc(Cl)cc1)Nc1cc(-c2ccccc2)no1` was inactive: 83%; that for `COc1ccc2c(c1)c1c(c(=O)n(-c3ccccc3C)c(=O)n1Cc1ccccc1C)n2C` was inactive: 75%.
Take `COc1ccc(OC)c(NC(=O)CN2C(=O)CC(c3ccco3)Sc3ccccc32)c1` (centres undefined): the survival is inactive: 76%.
In the case of `Cc1cc2nn(-c3ccc(Cl)cc3)nc2cc1NC(=O)C(C)C` it was inactive: 127%; in that of `COCCCNc1ncnc2c1c(-c1ccccc1)cn2-c1ccc(C)c(Cl)c1`, inactive: 80%; in that of `CCn1c(CN2CCN(c3cccc(Cl)c3)CC2)nc2c1c(=O)[nH]c(=O)n2C`, inactive: 78%.
The value for `CCc1cccc2c(=O)c(C(=O)N3CCCC3)c[nH]c12` was inactive: 103%; that for `C=CCN(CC=C)C(=S)Nc1ccc2nc(C)c(C)nc2c1` was inactive: 110%.
In the case of `COc1ccc(CNC(=O)c2cc3ccccn3n2)c(OC)c1` it was inactive: 70%; in that of `CCCCN(CC)C(=O)Cn1c(=O)n(-c2ccc(OCC)cc2)c(=O)c2c3c(sc21)CCC3`, inactive: 92%.
Turning to `O=C(c1ccc2c(c1)OCO2)c1cn(Cc2ccc(F)cc2)c2ccccc2c1=O`, the survival is inactive: 75%.
In the case of `CCOC(=O)c1ccc2c(c1)[nH]c(=S)n2CC` it was inactive: 109%.
For the compound `Cn1nc(C(=O)N2CCN(c3ccccc3)CC2)c2c1-c1ccccc1SC2`, the survival was inactive: 86%.
For the compound `CCCCOc1ccc(CNC(=O)Cn2ncn3c(cc4cc(F)ccc43)c2=O)cc1`, the survival was inactive: 89%.
The value for `O=C(O)c1ccc(-c2cccc(Cl)c2)o1` was inactive: 104%.
The value for `Cc1ccc(C2CCN(C(=O)c3cnn(-c4ccccc4Cl)c3C3CCN(C(=O)OC(C)(C)C)CC3)C2)cc1` (centres undefined) was inactive: 60%; that for `COc1cc(OC)c(C2C=C(C(=O)O)Nc3ncnn32)cc1OC` (centres undefined) was inactive: 90%.
On to `CCCOC(=O)c1c(NC(=O)c2nc3ncccn3n2)sc(C(=O)OCC)c1C`, for which the survival was inactive: 92%.
The value for `CC(=O)c1cccc(-n2c(=O)c3c4c(sc3n(Cc3ccccc3Cl)c2=O)CN(C(C)=O)CC4)c1` was inactive: 88%.
The value for `COc1ccccc1CNC(=O)c1cn(C)c2ccc(S(=O)(=O)N3CCC(C)CC3)cc2c1=O` was inactive: 87%; that for `O=C(COc1ccc(S(=O)(=O)NCc2ccccc2)cc1)NCc1ccco1` was inactive: 117%.
In the case of `Cc1c(F)cccc1NC(=O)C1CCCN1S(=O)(=O)c1ccc(F)cc1` (centres undefined) it was inactive: 83%; in that of `O=C(CCN1C(=O)CSC1=O)Nc1ccccc1`, inactive: 106%.
With `CCn1c(=N)c(C(N)=O)cc2c(=O)n3ccccc3nc21`, the survival was inactive: 122%.
The value for `Cc1ccc2[nH]cc(C(c3ccccc3)c3cccs3)c2c1` (centres undefined) was inactive: 25%; that for `COc1cc(OC)c(NC(=O)c2ccc3nc(C(C)C)oc3c2)cc1Cl` was inactive: 88%.
The value for `Cc1ccc(C(=O)Nc2cccc(C(=O)OCc3cc(=O)n4c5c(sc4n3)CCCC5)c2)cc1` was inactive: 79%; that for `Cc1ccc(NC(=O)C2CCCN(S(=O)(=O)c3cccc4cccnc34)C2)cc1Cl` (centres undefined) was inactive: 87%; that for `CC1=C(C#N)C(=O)NC(=O)/C1=C\c1ccc(-c2ccc(S(N)(=O)=O)cc2)o1` was inactive: 116%.
In the case of `COc1ccc(N2CCN(S(=O)(=O)c3c(C)nc4scc(C)n4c3=O)CC2)cc1` it was inactive: 78%; in that of `Cc1cc(C)c(NC(=O)CSc2nc(C)cc(C)c2C#N)c(C)c1`, inactive: 108%.
For `Cc1ccc(C)c(NC(=O)N2CC=C(c3c[nH]c4ccccc34)CC2)c1`, the survival was inactive: 71%.
With `O=C(CN1Cc2ccccc2C1=O)Nc1cc(F)ccc1F`, the survival was inactive: 55%.
The value for `O=C(/C(=N/O)n1cncn1)c1ccc(Cl)cc1Cl` was inactive: 99%; that for `Cc1cccc(N(C)C(=O)C(Cc2ccccc2)NS(=O)(=O)c2cccc3nsnc23)c1` (centres undefined) was inactive: 73%.
In the case of `COc1ccc(Nc2ccc3cc(S(=O)(=O)N4CCCC4)ccc3n2)cc1Cl`, the survival is inactive: 75%.
In the case of `Clc1c(-c2nnc(-c3ccc(N4CCOCC4)cc3)o2)sc2ccccc12`, the survival was inactive: 103%.
The value for `O=C(O)/C=C/c1ccc(S(=O)(=O)N(CCO)CCO)cc1` was inactive: 91%.
In the case of `COc1ccccc1OCC(=O)N(Cc1ccc(N(C)C)cc1)CC1CCCO1` (centres undefined) it was inactive: 96%; in that of `CCOc1ccc(-n2c(SCC(=O)Nc3ccccc3OC)nc3c(oc4ccccc43)c2=O)cc1`, inactive: 84%; in that of `CC(=O)c1ccc(NC(=O)C2CCN(S(=O)(=O)c3ccc4c(c3)CCCN4C(=O)C3CCC3)CC2)cc1`, inactive: 74%.
